Data from PMC5892938.
The list shows a part of the results. At the low end of the ranking the order means little.

Target: GST-SBP-SLBP (stem-loop binding protein) (UniProt Q14493)
Experiment: targeted RNA Bind-n-Seq;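 further: DESeq read counts versus GST-SBP nonspecific binding control pulldown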
Conditions: RBNS binding buffer: 25 mM Tris pH 7.5, 150 mM KCl, 3 mM MgCl2, 0.1% Tween, 0.5 mg/mL BSA, 1 mM DTT; 27 nM protein, 750 pM RNA pool; temperature not stated; high values mean tight binding

| Sequence | binding signal (log2 fold change) |
| --- | --- |
| GGUCACGUCUCAAUCAACUCAUUCUCAGGAGUUUACUCCUGCAAACUCAACAGCUCGCAGUCAAG | 0.0566 |
| GGUCACGUCUCAAUCAACUCUUCUCCCAGGGAAACCCCUGGUUAUGUCAACAGCUCGCAGUCAAG | 0.241 |
| GGUCACGUCUCAAUCAACUCACCCGAGGGGGGGAAAACCCCUUUACCCUCAAUUUCAACAGCUCGCAGUCAAG | 0.0398 |
| GGUCACGUCUCAAUCAACUCUACUCCCAGGGAAAACCCUGGCUAUCUCAACAGCUCGCAGUCAAG | -0.181 |
| GGUCACGUCUCAAUCAACUCUUUCCCAGGAGUUUUCUCCUGCAAACUCAACAGCUCGCAGUCAAG | 0.0249 |
| GGUCACGUCUCAAUCAACUCAUUUUCCAGGGAAAUCCCUGGCAAUUUCAACAGCUCGCAGUCAAG | 0.0969 |
| GGUCACGUCUCAAUCAACUCUUCCUCAGGAGUUUACUCCUGUAUACUCAACAGCUCGCAGUCAAG | -0.135 |
| GGUCACGUCUCAAUCAACUCUUCUCCCAGGGAAAGCCCUGGCUAAUUCAACAGCUCGCAGUCAAG | 0.0612 |
| GGUCACGUCUCAAUCAACUCAACUUCAGGAGUUUGCUCCUGUAUACUCAACAGCUCGCAGUCAAG | 0.119 |
| GGUCACGUCUCAAUCAACUCUUCAGAGGGGGGGAAAACCCCUUUACCCUCAAAUUCAACAGCUCGCAGUCAAG | -0.195 |
| GGUCACGUCUCAAUCAACUCAUCGGCAGGAGUUUACUCCUGGAAUUUCAACAGCUCGCAGUCAAG | -0.203 |
| GGUCACGUCUCAAUCAACUCUACUUCAGGAGUUUCCUCCUGCUUUUUCAACAGCUCGCAGUCAAG | 0.0722 |
| GGUCACGUCUCAAUCAACUCUUCCUCAGGAGUUUUCUCCUGUUAAUUCAACAGCUCGCAGUCAAG | -0.0612 |
| GGUCACGUCUCAAUCAACUCAAUCUCCAGGGAAAGCCCUGGUUAAUUCAACAGCUCGCAGUCAAG | -0.0604 |
| GGUCACGUCUCAAUCAACUCAUUAGAGGGGGGGAAAACCCCUUUGCCCUCACAAUCAACAGCUCGCAGUCAAG | -0.0117 |
| GGUCACGUCUCAAUCAACUCAAGUCCCAGGGAAAACCCUGGCAAUUUCAACAGCUCGCAGUCAAG | 0.381 |
| GGUCACGUCUCAAUCAACUCUUUUCCAGGAGUUUACUCCUGUUAUUUCAACAGCUCGCAGUCAAG | -0.104 |
| GGUCACGUCUCAAUCAACUCAUCGUCCAGGGAAACCCCUGGUUAUUUCAACAGCUCGCAGUCAAG | -0.287 |
| GGUCACGUCUCAAUCAACUCAUUCCCCAGGGAAAGCCCUGGCAUACUCAACAGCUCGCAGUCAAG | 0.156 |
| GGUCACGUCUCAAUCAACUCUAUUCCAGGAGUUUUCUCCUGCAAUUUCAACAGCUCGCAGUCAAG | 0.0122 |
| GGUCACGUCUCAAUCAACUCUUUCUCCAGGGAAACCCCUGGCAAUGUCAACAGCUCGCAGUCAAG | -0.0458 |
| GGUCACGUCUCAAUCAACUCCUCGGAGGGGGGGAAAACCCCUUUACCCUCAAACUCAACAGCUCGCAGUCAAG | -0.321 |
| GGUCACGUCUCAAUCAACUCUAUUCCCAGGGAAAUCCCUGGCUAAUUCAACAGCUCGCAGUCAAG | 0.0909 |
| GGUCACGUCUCAAUCAACUCAAUUCCCAGGGAAAUCCCUGGCUAAUUCAACAGCUCGCAGUCAAG | -0.351 |
| GGUCACGUCUCAAUCAACUCAUCUCCCAGGGAAAUCCCUGGUUUAUUCAACAGCUCGCAGUCAAG | 0.149 |

| Sequence | binding signal (log2 fold change) |
| --- | --- |
| GGUCACGUCUCAAUCAACUCUUCGUCCAGGGAAAUCCCUGGUUUUUUCAACAGCUCGCAGUCAAG | -0.299 |
| GGUCACGUCUCAAUCAACUCAAGUCCAGGAGUUUACUCCUGUUAUCUCAACAGCUCGCAGUCAAG | -0.0977 |
| GGUCACGUCUCAAUCAACUCAAUCGAGGGGGGGAAAACCCCUUUACCCUCACCAUCAACAGCUCGCAGUCAAG | -0.157 |
| GGUCACGUCUCAAUCAACUCAUUAGAGGGGGGGAAAACCCCUUUGCCCUCAAACUCAACAGCUCGCAGUCAAG | 0.106 |
| GGUCACGUCUCAAUCAACUCUAUUUCCAGGGAAACCCCUGGCAUUUUCAACAGCUCGCAGUCAAG | 0.0122 |
| GGUCACGUCUCAAUCAACUCUUUUCCCAGGGAAAUCCCUGGCUAAUUCAACAGCUCGCAGUCAAG | -0.0664 |
| GGUCACGUCUCAAUCAACUCUUCUCCCAGGGAAACCCCUGGUUAAUUCAACAGCUCGCAGUCAAG | -0.132 |
| GGUCACGUCUCAAUCAACUCUACUUCAGGAGUUUACUCCUGCAUACUCAACAGCUCGCAGUCAAG | -0.00113 |
| GGUCACGUCUCAAUCAACUCCCAAGAGGGGGGGAAAACCCCUUUGCCCUCGUAUUCAACAGCUCGCAGUCAAG | -0.0627 |
| GGUCACGUCUCAAUCAACUCAUCCCCAGGAGUUUCCUCCUGCAUAUUCAACAGCUCGCAGUCAAG | 0.0384 |
| GGUCACGUCUCAAUCAACUCUUUUUCCAGGGAAAUCCCUGGUUAAUUCAACAGCUCGCAGUCAAG | -0.134 |
| GGUCACGUCUCAAUCAACUCCCCAGAGGGGGGGAAAACCCCUUUACCCUCGAAAUCAACAGCUCGCAGUCAAG | -0.164 |
| GGUCACGUCUCAAUCAACUCUUCUUCCAGGGAAACCCCUGGCUUAUUCAACAGCUCGCAGUCAAG | 0.137 |
| GGUCACGUCUCAAUCAACUCAUCCUCAGGAGUUUCCUCCUGCAUAGUCAACAGCUCGCAGUCAAG | 0.106 |
| GGUCACGUCUCAAUCAACUCUAUCUCAGGAGUUUUCUCCUGUUAACUCAACAGCUCGCAGUCAAG | 0.0651 |
| GGUCACGUCUCAAUCAACUCUUCUUCCAGGGAAACCCCUGGUAAUCUCAACAGCUCGCAGUCAAG | 0.352 |
| GGUCACGUCUCAAUCAACUCAUCGCCAGGAGUUUUCUCCUGUAUACUCAACAGCUCGCAGUCAAG | 0.0118 |
| GGUCACGUCUCAAUCAACUCUAUCUCAGGAGUUUCCUCCUGUUUUGUCAACAGCUCGCAGUCAAG | 0.0279 |
| GGUCACGUCUCAAUCAACUCAUUAGAGGGGGGGAAAACCCCUUUGCCCUCGUCAUCAACAGCUCGCAGUCAAG | 0.19 |
| GGUCACGUCUCAAUCAACUCCCUAGAGGGGGGGAAAACCCCUUUACCCUCAACCUCAACAGCUCGCAGUCAAG | -0.449 |
| GGUCACGUCUCAAUCAACUCAUCCUCAGGAGUUUGCUCCUGCAUUCUCAACAGCUCGCAGUCAAG | 0.219 |
| GGUCACGUCUCAAUCAACUCCCUGGAGGGGGGGAAAACCCCUUUACCCUCAUUCUCAACAGCUCGCAGUCAAG | -0.741 |
| GGUCACGUCUCAAUCAACUCAAUCUCCAGGGAAAACCCUGGCUAUGUCAACAGCUCGCAGUCAAG | 0.19 |
| GGUCACGUCUCAAUCAACUCAUUUUCCAGGGAAAGCCCUGGCGUUUUCAACAGCUCGCAGUCAAG | 0.0924 |
| GGUCACGUCUCAAUCAACUCUAUCUCAGGAGUUUGCUCCUGCUUUUUCAACAGCUCGCAGUCAAG | -0.135 |

| Sequence | binding signal (log2 fold change) |
| --- | --- |
| GGUCACGUCUCAAUCAACUCUUUCGCAGGAGUUUUCUCCUGGUUUUUCAACAGCUCGCAGUCAAG | 0.0124 |
| GGUCACGUCUCAAUCAACUCACAAGAGGGGGGGAAAACCCCUUUACCCUCCGUAUCAACAGCUCGCAGUCAAG | -0.371 |
| GGUCACGUCUCAAUCAACUCAUAAGAGGGGGGGAAAACCCCUUUACCCUCAACAUCAACAGCUCGCAGUCAAG | -0.112 |
| GGUCACGUCUCAAUCAACUCAUCCUCAGGAGUUUCCUCCUGCAAUUUCAACAGCUCGCAGUCAAG | -0.0376 |
| GGUCACGUCUCAAUCAACUCUUUUUCAGGAGUUUACUCCUGCUUAUUCAACAGCUCGCAGUCAAG | 0.000858 |
| GGUCACGUCUCAAUCAACUCAUCCUCCAGGGAAACCCCUGGCAAUUUCAACAGCUCGCAGUCAAG | 0.0192 |
| GGUCACGUCUCAAUCAACUCUUCUUCCAGGGAAAACCCUGGCUUUUUCAACAGCUCGCAGUCAAG | -0.0294 |
| GGUCACGUCUCAAUCAACUCUUUUUCAGGAGUUUUCUCCUGUAAUGUCAACAGCUCGCAGUCAAG | 0.0264 |
| GGUCACGUCUCAAUCAACUCAAUCUCAGGAGUUUACUCCUGCUAAGUCAACAGCUCGCAGUCAAG | 0.0635 |
| GGUCACGUCUCAAUCAACUCAUCCUCAGGAGUUUCCUCCUGUAAUUUCAACAGCUCGCAGUCAAG | 0.0333 |
| GGUCACGUCUCAAUCAACUCUUUCCCAGGAGUUUACUCCUGCUUUUUCAACAGCUCGCAGUCAAG | 0.0401 |
| GGUCACGUCUCAAUCAACUCUAAAGAGGGGGGGAAAACCCCUUUGCCCUCAUAAUCAACAGCUCGCAGUCAAG | -0.0442 |
| GGUCACGUCUCAAUCAACUCAAUCUCAGGAGUUUCCUCCUGCUAAUUCAACAGCUCGCAGUCAAG | -0.142 |
| GGUCACGUCUCAAUCAACUCUUUCUCCAGGGAAAGCCCUGGUAAUGUCAACAGCUCGCAGUCAAG | -0.368 |
| GGUCACGUCUCAAUCAACUCAUCGUCAGGAGUUUCCUCCUGUUUUCUCAACAGCUCGCAGUCAAG | 0.127 |
| GGUCACGUCUCAAUCAACUCUUCCCCAGGAGUUUACUCCUGCAAAUUCAACAGCUCGCAGUCAAG | 0.0676 |
| GGUCACGUCUCAAUCAACUCAUCCCCCAGGGAAAGCCCUGGCAAUUUCAACAGCUCGCAGUCAAG | -0.135 |
| GGUCACGUCUCAAUCAACUCUUCCUCCAGGGAAACCCCUGGUUAAUUCAACAGCUCGCAGUCAAG | -0.249 |
| GGUCACGUCUCAAUCAACUCUAUUCCAGGAGUUUACUCCUGCAAAUUCAACAGCUCGCAGUCAAG | -0.177 |
| GGUCACGUCUCAAUCAACUCAUCCUCCAGGGAAACCCCUGGUUAACUCAACAGCUCGCAGUCAAG | 0.221 |
| GGUCACGUCUCAAUCAACUCUACGCCAGGAGUUUUCUCCUGUUAAUUCAACAGCUCGCAGUCAAG | -0.0622 |
| GGUCACGUCUCAAUCAACUCUUUUUCAGGAGUUUUCUCCUGCAAUGUCAACAGCUCGCAGUCAAG | -0.0537 |
| GGUCACGUCUCAAUCAACUCAUUUCCAGGAGUUUACUCCUGCUAACUCAACAGCUCGCAGUCAAG | 0.0184 |
| GGUCACGUCUCAAUCAACUCAAAAGAGGGGGGGAAAACCCCUUUGCCCUCAAACUCAACAGCUCGCAGUCAAG | 0.0219 |
